These results are taken from article PMC6779278.

By UniProt entry, the sequences of proteins in these tests, tags left out. Where a name states a change or a piece, a line headed by the entry shows the natural chain unless it says otherwise. Residues count along the entry.
UniProt Q9VEN2: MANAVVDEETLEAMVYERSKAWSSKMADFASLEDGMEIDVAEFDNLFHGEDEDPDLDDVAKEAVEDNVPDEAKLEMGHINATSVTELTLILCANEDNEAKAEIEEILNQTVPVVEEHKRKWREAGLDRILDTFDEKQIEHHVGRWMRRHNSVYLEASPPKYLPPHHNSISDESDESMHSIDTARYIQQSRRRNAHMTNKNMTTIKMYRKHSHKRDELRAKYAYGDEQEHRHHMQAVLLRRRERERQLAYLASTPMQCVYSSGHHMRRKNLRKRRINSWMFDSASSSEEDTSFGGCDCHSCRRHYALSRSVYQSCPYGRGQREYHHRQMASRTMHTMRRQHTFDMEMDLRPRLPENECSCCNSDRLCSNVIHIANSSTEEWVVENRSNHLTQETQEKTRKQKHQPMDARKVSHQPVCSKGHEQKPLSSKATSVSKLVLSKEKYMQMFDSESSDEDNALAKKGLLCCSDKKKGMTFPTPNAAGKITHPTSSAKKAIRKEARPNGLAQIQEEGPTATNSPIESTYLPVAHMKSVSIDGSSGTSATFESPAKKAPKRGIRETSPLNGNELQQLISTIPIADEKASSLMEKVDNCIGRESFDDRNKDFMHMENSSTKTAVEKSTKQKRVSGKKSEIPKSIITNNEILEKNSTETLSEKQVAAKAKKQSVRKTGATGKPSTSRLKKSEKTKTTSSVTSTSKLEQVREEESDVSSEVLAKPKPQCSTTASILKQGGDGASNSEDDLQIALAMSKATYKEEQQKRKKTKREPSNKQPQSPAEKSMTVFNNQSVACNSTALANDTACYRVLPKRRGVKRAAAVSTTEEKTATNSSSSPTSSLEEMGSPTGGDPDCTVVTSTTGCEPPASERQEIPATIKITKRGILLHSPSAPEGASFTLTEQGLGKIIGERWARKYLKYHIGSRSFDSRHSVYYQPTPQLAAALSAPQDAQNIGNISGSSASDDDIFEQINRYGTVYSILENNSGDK
CAL1 C-terminus (amino acids 680-979), yeast two-hybrid fusion (pMM6): residues 680-979 of Q9VEN2
UniProt Q9V6Q2: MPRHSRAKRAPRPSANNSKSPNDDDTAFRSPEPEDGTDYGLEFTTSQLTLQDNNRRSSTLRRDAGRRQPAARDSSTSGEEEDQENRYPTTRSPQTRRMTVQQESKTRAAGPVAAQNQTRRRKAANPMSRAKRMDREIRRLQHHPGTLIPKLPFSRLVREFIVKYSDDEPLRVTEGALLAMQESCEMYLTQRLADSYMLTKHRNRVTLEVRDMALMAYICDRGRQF

The target of one assay is T1, GST-Zw10 (Drosophila) (UniProt Q9W4X9).
T1 sequence: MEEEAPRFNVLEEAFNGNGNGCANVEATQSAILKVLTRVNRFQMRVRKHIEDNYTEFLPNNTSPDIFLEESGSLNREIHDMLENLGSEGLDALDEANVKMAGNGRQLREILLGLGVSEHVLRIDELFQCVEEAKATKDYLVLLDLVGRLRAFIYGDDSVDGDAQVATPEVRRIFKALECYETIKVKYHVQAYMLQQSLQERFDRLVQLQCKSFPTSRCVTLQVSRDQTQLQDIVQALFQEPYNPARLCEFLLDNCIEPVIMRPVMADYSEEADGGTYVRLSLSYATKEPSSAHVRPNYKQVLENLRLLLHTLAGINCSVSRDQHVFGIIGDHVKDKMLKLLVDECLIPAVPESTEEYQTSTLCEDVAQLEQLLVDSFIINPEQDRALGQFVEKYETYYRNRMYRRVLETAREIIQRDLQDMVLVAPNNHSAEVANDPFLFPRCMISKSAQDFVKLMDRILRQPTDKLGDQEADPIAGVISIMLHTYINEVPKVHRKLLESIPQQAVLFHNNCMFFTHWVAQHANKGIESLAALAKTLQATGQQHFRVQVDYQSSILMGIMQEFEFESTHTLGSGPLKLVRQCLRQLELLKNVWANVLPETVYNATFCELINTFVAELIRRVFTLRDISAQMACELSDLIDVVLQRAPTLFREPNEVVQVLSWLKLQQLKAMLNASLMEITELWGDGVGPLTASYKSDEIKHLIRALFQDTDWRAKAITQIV
In words: pull-down; GST or GST-Zw10 coupled beads with 100 ng His-Sumo-CAL1 or His-Sumo-CENP-A; 20 mM Tris pH 8, 150 mM NaCl, 0.5 mM EDTA, 10% glycerol, 0.1% NP-40, 1 mM DTT; 1 h at 4°C; immunoblot; both purified.

Another assay addresses T2, GFP-Zw10 (Drosophila) (UniProt Q9W4X9).
T2 sequence: T1 sequence
In words: co-IP; GFP-Zw10 isolated from S2 cell lysate with GBP beads; 20 mM Tris-HCl pH 7.5, 1% NP-40, 250 mM NaCl; 2 h at 4°C; immunoblot.

For assay [1], the target named is CAL1 C-terminus (amino acids 680-979), yeast two-hybrid fusion (pMM6) (Drosophila melanogaster) (UniProt Q9VEN2). In words: two-hybrid; pMM5 and pMM6 fusion constructs in yeast strain SGY37VIII; CAL1 or CENP-A as bait, SAC proteins as prey; beta-galactosidase activity with X-Gal (blue colour).
The target of assay [2] is CAL1, full-length, yeast two-hybrid fusion (pMM6) (Drosophila melanogaster) (UniProt Q9VEN2). Described as above.
Assay [3] deals with CENP-A, yeast two-hybrid fusion (pMM6) (Drosophila melanogaster) (UniProt Q9V6Q2). The description is as above.

No constants are given. Whether binding was seen depends on the method and setting. For some of these results: In cells and extracts the contact can be indirect. Some binding calls cover weakened binding; strength is not graded here. Sequences can lack the tags named with a protein.

Turning to “His-Sumo-CAL1 (from UniProt Q9VEN2 1-979)”, the binding result with GST-Zw10 (Drosophila) is on record as “binds”.

For “CAL1 in lysate of GFP-Zw10 expressing S2 cells (from UniProt Q9VEN2 1-979)”, the binding result with GFP-Zw10 (Drosophila) is listed as “binds”.

B1: Zw10, full-length, yeast two-hybrid fusion (pMM5) (protein, UniProt Q9W4X9 1-721)
chain: T1 sequence
On to B1, for which the binding entry in assay [1] and in assay [2] was “binds” each time.

B2: Zw10 C-terminus (amino acids 482-721), yeast two-hybrid fusion (pMM5) (domain or fragment, UniProt Q9W4X9 482-721)
chain: MLHTYINEVPKVHRKLLESIPQQAVLFHNNCMFFTHWVAQHANKGIESLAALAKTLQATGQQHFRVQVDYQSSILMGIMQEFEFESTHTLGSGPLKLVRQCLRQLELLKNVWANVLPETVYNATFCELINTFVAELIRRVFTLRDISAQMACELSDLIDVVLQRAPTLFREPNEVVQVLSWLKLQQLKAMLNASLMEITELWGDGVGPLTASYKSDEIKHLIRALFQDTDWRAKAITQIV
Regarding B2, the binding entry in assay [1] is “binds”.

B3: Zwilch, yeast two-hybrid fusion (pMM5) (protein, UniProt Q9VA00 1-641)
chain: MSASANLANVYAELMRRCGESYTITYGAPPTYLVSMVGAAEAGKKIVLVFKEDRNGAVARLRTTPTRAAPKKEGSADLDLTGSPLKDDCLVDAIADLSIDLQLDHSNPWKLEEEYQRGIPVDKARSIVCSEFLQLAEGLGSVWFLCDGSDLGQTQLLQYEFNPTHFSRGILSYQGVRPAYLVTSQALVRHHGKTPDETLIENSYQVNPHMRLRCSWTSSAALPLLVNLNDCDVALNHTFRVGDCGPLTQDFMNQLRILVYIREDIVSYHTDVKQGVSRDPTYRCGSGIDMDELRESINQTMTDVSGLIGRYSISNAEFDIEDVVQRAKVRQLTDLTDKLWELLKCCHSYKDLKIAFSMLFQCAARCNIVNTPTNKNRLAKIITELANRRLAMPCLSGAEPLELLLEIGLEKLYKDYEFIYTESKMCSTNLLKDDSSGASMDDGSPQNLPQLRKSLHNAVRGDPTPGAGMRKTLLHHHGAVNSRSTKYAGSDDDAGFKNSHFDEHESTERISKLFQIHCTLEHLLMMHIHLNLANVYNDVCSELLKKPPKLVESIDDQLSDVMDIRLSAHYVRDHLDGKDPYSRHITMRSHNKFRELKTTFYFNSENICPPNLAQCFQCDDKEMVKERTYHSWIYHKIRSLK
For B3, the binding result in assay [2] and in assay [3] was “no binding” in each case.
